Measured values reported in the supplement of paper PMC4894684.
Structures can show the parent of a compound that is named as a salt. ± gives the standard deviation of the averaged measurements. About 15 (2%) of roughly 1,000 compounds showed an effect of 50% or more. Some of the results follow.

What follows are compounds tested on HFF (assay: uninfected host cell viability relative to vehicle control; higher = less host cell toxicity). Conditions: 5 µM; 72 h; oxygen 21 %.
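Note: confluent HFF monolayers, run in parallel with the Toxoplasma growth screen as a host toxicity counterscreen.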

Row | Compound | uninfected host cell viability
1 | CN(C)CCC1(c2ccc(Cl)cc2)Cc2ccccc2C(=O)O1 (racemic) [(±)-AC 7954 hydrochloride] | 102.9 ± 0.53%
2 | COCCCC/C(=N\OCCN)c1ccc(C(F)(F)F)cc1 [Fluvoxamine maleate] | 91.94 ± 0.13%
3 | CCCCC1CCC(c2nc(-c3ccncc3)no2)CC1 (stereo not given) | 102 ± 3.9%
4 | O=C(Nc1cc(C(F)(F)F)cc(C(F)(F)F)c1)c1cc(Cl)ccc1O | 46.8 ± 2.5%
5 | COc1ccc(CC(C)NCC(O)c2ccc(O)c(NC=O)c2)cc1 (stereo not given) [Formoterol hemifumarate] | 97.3 ± 1.1%
6 | O=C(OCCN1CCOCC1)C1(c2ccccc2)CCCCC1 [PRE-084 hydrochloride] | 89.3 ± 4.8%
7 | COc1[nH]c2ccc(F)cc2c1C(=O)OCC1CCN(CCNS(C)(=O)=O)CC1.NS(=O)(=O)O | 89.8 ± 2.6%
8 | CN=c1nc(-c2ccccc2)n(-c2ccccc2)s1 | 84.4 ± 5.6%
9 | Nc1nnc(Sc2ncc([N+](=O)[O-])s2)s1 | 89.9 ± 4.9%
10 | O=C(c1ccc(F)cc1)C1CCN(CCCCc2ccccc2)CC1 [4-(4-Fluorobenzoyl)-1-(4-phenylbutyl)-piperidine oxalate] | 89 ± 2.3%
11 | O=C(COc1cccc2c(=O)[nH]ccc12)c1ccccc1 | 96.3 ± 7.2%
12 | O=C(O)Cn1c(C(=O)Nc2nc(-c3ccccc3Cl)cs2)cc2ccccc21 | 89.61 ± 0.48%
13 | CCCCCCCCCCCCCCCC(=O)O[C@H](CC(=O)O)C[N+](C)(C)C (racemic) [(±)-Palmitoylcarnitine chloride] | 89.8 ± 4.6%
14 | CCCC[P+](CCCC)(CCCC)Cc1ccc(NC(=O)C(Cc2ccc3ccccc3c2)NC(=NC2CCCCC2)NC2CCCCC2)cc1 (stereo not given) | 85.8 ± 2.3%
15 | N#C/C(=C\c1ccc(O)c(O)c1)C(=O)Nc1ccccc1 | 79.9 ± 1.9%
16 | CN1Cc2c(C(=O)OC(C)(C)C)ncn2-c2ccsc2C1=O | 97.9 ± 4.9%
17 | O=C1NC(=O)C(c2ccccc2[N+](=O)[O-])=C1Nc1ccc(O)c(Cl)c1 | 81.3 ± 3.2%
18 | CNc1cc2c(Nc3cccc(Br)c3)ncnc2cn1 | 80.8 ± 2%
19 | C[C@@H]1CN(CCCn2c3ccccc3c3ccccc32)C[C@H](C)N1 [Rimcazole dihydrochloride] | 80.6 ± 2.8%
20 | Oc1ccc(C2CNCCc3c2cc(O)c(O)c3Cl)cc1 (stereo not given) [Fenoldopam hydrochloride] | 90.23 ± 0.32%
21 | CC(=Cc1ccc(C(=O)O)cc1)c1ccc2c(c1)C(C)(C)CCC2(C)C | 80.4 ± 2.1%
22 | O=C(O)CN1C(=O)c2cccc3cccc(c23)C1=O [Alrestatin] | 101 ± 6.3%
23 | COC(=O)Nc1nc2cc(C(=O)c3cccs3)ccc2[nH]1 [Nocodazole] | 75 ± 2.4%

Row | Compound | uninfected host cell viability
24 | COC(=O)C1=C(C)NC(C)=C(C(=O)OCCCN2CCC(c3ccccc3)(c3ccccc3)CC2)[C@@H]1c1cccc([N+](=O)[O-])c1 [(R)-(-)-Niguldipine hydrochloride] | 76.3 ± 0.78%
25 | NCCc1c[nH]cn1 [Histamine dihydrochloride] | 96.1 ± 2.4%
26 | CC(C)(C=O)Cc1cc(C(C)(C)C)c(O)c(C(C)(C)C)c1 | 89.6 ± 8.5%
27 | C[C@H]1O[C@H](O[C@H]2[C@H](O)[C@@H](O)[C@@H](O[C@H]3[C@H](O)[C@@H](O)C(O)O[C@@H]3CO)O[C@@H]2CO)[C@H](O)[C@@H](O)[C@@H]1N[C@H]1C=C(CO)[C@@H](O)[C@H](O)[C@H]1O (stereo not given in full) [Acarbose] | 93.6 ± 8.3%
28 | CN1CCC(=C2c3ccccc3C=Cc3ccccc32)CC1 [Cyproheptadine hydrochloride] | 75.4 ± 4.6%
29 | COc1cc2c(Nc3ccc(NC(=O)c4ccccc4)cc3)ncnc2cc1OCCCN1CCOCC1 | 64.74 ± 0.56%
30 | N[C@H](C(=O)O)c1ccc(O)c(C(=O)O)c1 [(S)-3-Carboxy-4-hydroxyphenylglycine] | 83.1 ± 0.11%
31 | COc1ccc(CN2C(=O)C(=O)c3cc(OC(F)(F)F)ccc32)cc1 | 87.9 ± 3.1%
32 | COc1cccc(/C=N/N=C/c2cccc(OC)c2)c1 | 83.58 ± 0.31%
33 | C[C@@H](NCc1cc(Br)cc2[nH]c(=O)c(=O)[nH]c12)P(=O)(O)O | 88.3 ± 3.9%
34 | O/N=C/c1ccc(-c2ccc(O)c(F)c2)c(Cl)c1O | 91.86 ± 0.49%
35 | COc1cc(C(=O)OCCCN2CCCN(CCCOC(=O)c3cc(OC)c(OC)c(OC)c3)CC2)cc(OC)c1OC [Dilazep dihydrochloride] | 98.9 ± 5.1%
36 | CCCCC/N=c1\ccn(Cc2ccccc2)c2ccccc12 | 83.1 ± 2.5%
37 | CN1c2cc3c(cc2N=C(c2ccc(C(=O)O)cc2)c2ccccc21)C(C)(C)CCC3(C)C | 100 ± 8.6%
38 | COc1nccc(-c2c(-c3ccc(F)cc3)ncn2C2CCC(O)CC2)n1 (stereo not given) | 93.53 ± 0.38%
39 | OCCNCCCOc1cccc(Cl)c1Cl [2,3-DCPE hydrochloride] | 81.7 ± 3.9%
40 | C[N+]1(C)CCC(OC(=O)C(c2ccccc2)c2ccccc2)CC1 | 100.2 ± 0.87%
41 | O=C1C=CC(=O)C2=C1C1c3ccccc3C2c2ccccc21 | 88.5 ± 4.6%
42 | O=C(O)c1c(Sc2ccccc2)c2cc(Cl)ccc2n1Cc1ccc(Cl)cc1 | 93.9 ± 8.2%
43 | CCCCOc1cc(CC2CNC(=O)N2)ccc1OC (stereo not given) | 87 ± 1.2%
44 | CCOc1ccccc1OC(c1ccccc1)C1CNCCO1 (stereo not given) [Reboxetine mesylate] | 97.2 ± 6.6%
45 | O=S1(=O)c2cccc3cccc(c23)N1CCCN1CCN(c2ccc(F)cc2)CC1 [Fananserin] | 87.5 ± 3.8%
46 | Nc1ncnc2c1ncn2C1CCCO1 (stereo not given) | 98.1 ± 1.2%

Row | Compound | uninfected host cell viability
47 | CC1c2ccccc2CN1CC1=NCCN1 (stereo not given) | 89 ± 2.3%
48 | Cn1cccc1/C=C1\C(=O)NC(=O)c2ccccc21 | 97 ± 1.7%
49 | COc1cc2c(CCNC(C)=O)c[nH]c2cc1Cl [6-Chloromelatonin] | 89.6 ± 1.9%
50 | CCCn1c(=O)[nH]c2nc(-c3ccc(S(=O)(=O)O)cc3)[nH]c2c1=O | 86.34 ± 0.58%
51 | CC(Cc1ccc(O)c(O)c1)(NN)C(=O)O [(S)-(-)-Carbidopa] | 86.5 ± 4.4%
52 | CN(Cc1cnc2nc(N)nc(N)c2n1)c1ccc(C(=O)N[C@@H](CCC(=O)O)C(=O)O)cc1 [Methotrexate] | 90.6 ± 3.5%
53 | CC(C)(Sc1ccc(CCN(CCCCC2CCCCC2)C(=O)NC2CCCCC2)cc1)C(=O)O | 101 ± 1.1%
54 | OC(CN1CCN(c2cccc(Cl)c2)CC1)C(c1ccccc1)c1ccccc1 (stereo not given) | 90.1 ± 1.8%
55 | CCCCNc1c(C(=O)OCC)c(C)nc2c1cnn2CC [Tracazolate hydrochloride] | 100.8 ± 1%
56 | COc1cc(-c2ccc(=O)[nH]n2)ccc1OC(F)F [Zardaverine] | 90.7 ± 2.2%
57 | CC[N+](CC)(CC)CC(=O)Nc1c(C)cccc1C [QX 314 bromide] | 95.6 ± 3%
58 | CC[N+](CC)(CC)CC(=O)Nc1c(C)cccc1C [QX 314 chloride] | 87.3 ± 3%
59 | c1ccc(COCCCc2c[nH]cn2)cc1 [Proxyfan Oxalate] | 97.3 ± 1.1%
60 | O=C(NCCN1CCCCC1)c1ccc(I)cc1 [N-[2-(Piperidinylamino)ethyl]-4-iodobenzamide] | 83.6 ± 0.99%
61 | CC1=C(/C=C/C(=C/C=C/C(C)=C/C(=O)O)c2ccc(C)cc2)C(C)(C)CCC1 | 111 ± 1.8%
62 | COC(=O)Nc1ccc2[nH]cc(CCNC(C)=O)c2c1 | 94.6 ± 3.5%
63 | Cc1cc(C)c(S(=O)(=O)Nc2cccc(C(F)(F)F)c2)c(C)c1 | 82.4 ± 6.6%
64 | N#C/C(=C\c1ccc(O)c(O)c1)C(=O)NCc1ccccc1 | 82.5 ± 2%
65 | c1nc(CC2CCNCC2)c[nH]1 [Immepip dihydrobromide] | 81.5 ± 3.3%
66 | O=C(O)C1=CCCN(CCON=C(c2ccccc2)c2ccccc2)C1 | 89.4 ± 4.1%
67 | Nc1ncnc2n[nH]c(Nc3ccc(F)cc3)c12 | 80.93 ± 0.35%
68 | c1ccc(CN(CC2=NCCN2)c2ccccc2)cc1 [Antazoline hydrochloride] | 91 ± 1.8%
69 | NC(=O)c1cccc(N)c1 [3-Aminobenzamide] | 87.67 ± 0.84%

Row | Compound | uninfected host cell viability
70 | CN(CC[C@@H](Oc1ccc(-c2ccccc2)cc1)c1ccc(F)cc1)CC(=O)O [ALX 5407 hydrochloride] | 89.7 ± 7.4%
71 | CCN(CC)CCCC(C)Nc1nc(C)cc(Nc2ccc3nc(C)cc(N)c3c2)n1 (stereo not given) | 80.4 ± 1.2%
72 | CNC(=O)[C@H]1O[C@@H](n2cnc3c(NCc4cccc(I)c4)nc(Cl)nc32)[C@H](O)[C@@H]1O | 82.65 ± 0.48%
73 | O=[N+]([O-])c1cccc2c[nH]nc12 | 85.36 ± 0.14%
74 | Clc1cccc2c1CN(C1=NCCN1)C2 | 91.5 ± 9.4%
75 | O=C(/C=C/c1c(C(=O)O)[nH]c2cc(Cl)cc(Cl)c12)Nc1ccccc1 [Gavestinel] | 85.3 ± 1.3%
76 | Cn1ccc2cc3c(cc21)CCN3C(=O)Nc1cccnc1 | 78.06 ± 0.67%
77 | COc1ccc(CCN(C)CCCOc2ccc(S(=O)(=O)c3c(C(C)C)c4ccccc4n3C)cc2)cc1OC | 86.8 ± 0.95%
78 | CCCCCCN(CCCCCC)C(=O)Cc1c(-c2ccc(Cl)cc2)[nH]c2ccc(Cl)cc12 | 97.7 ± 1.1%
79 | O=C1C(SCCO)=C(SCCO)C(=O)c2ccccc21 | 70 ± 0.99%
80 | CCOC(=O)[C@H](CCc1ccccc1)N[C@@H](C)C(=O)N1Cc2cc(OC)c(OC)cc2C[C@H]1C(=O)O [Moexipril hydrochloride] | 97.91 ± 0.78%
81 | FC(F)(F)c1cccc(-c2noc(-c3cc(-c4ccccc4)c(C(F)(F)F)s3)n2)c1 | 90.4 ± 2.4%
82 | CCN(CC)CCCCN1c2ccccc2Oc2ccc(Cl)cc21 [10-DEBC hydrochloride] | 80.7 ± 3.3%
83 | Cc1cccc(C(=O)NCN2CCN(c3ccccc3C#N)CC2)c1 | 88.3 ± 1.4%
84 | Fc1ccc([C@@H]2CCNC[C@H]2COc2ccc3c(c2)OCO3)cc1 [Paroxetine maleate] | 78.9 ± 3.3%
85 | COc1cc(OC)c(C(=O)CCCCN2CCC3(CC2)NC(=O)NC3=O)cc1NS(=O)(=O)c1ccc(C(F)(F)F)cc1 | 90 ± 3.1%
86 | COC(=O)C1=C(C)NC(C)=C(C(=O)OC(C)C)C1c1cccc2nonc12 (stereo not given) [Isradipine] | 104 ± 7.9%
87 | O=C1OC(OC(=O)c2cccnc2Nc2cccc(C(F)(F)F)c2)c2ccccc21 (stereo not given) [Talniflumate] | 95.7 ± 11%
88 | CCC(=O)NC1CCc2cccc(OC)c2C1 (stereo not given) | 92.8 ± 1.7%
89 | N[C@@H](Cc1cc(-c2ccc(Cl)cc2Cl)cc(CP(=O)(O)O)c1O)C(=O)O | 89.1 ± 2.9%
90 | NCCCCCCCCCCNS(=O)(=O)c1cccc2c(Cl)cccc12 [A-7 hydrochloride] | 88.1 ± 2.6%
